The supplement of paper PMC9174493
Structures can show the parent of a compound that is named as a salt. The list shows a part of the results. Single values of this set are uncertain. Values with irradiation are relative to irradiated vehicle.

Tested on: A549-Dual
Assay: ISRE reporter (Lucia luciferase) activity, viability-corrected, relative to vehicle (fold change vs vehicle); higher = more activation of STING-IRF / NF-kB immune response reporter
Conditions: 10 µM; irradiation: none

SMILES	ISRE reporter
O=C(O)CC(O)C(=O)O (configuration not stated) [Malic acid]	0.286
CCC(C)C(N)C1=NCC(C(=O)NC(CC(C)C)C(=O)NC(CCC(=O)[O-])C(=O)NC(C(=O)NC2CCCCNC(=O)C(CC(N)=O)NC(=O)C(CC(=O)[O-])NC(=O)C(Cc3c[nH]cn3)NC(=O)C(Cc3ccccc3)NC(=O)C(C(C)CC)NC(=O)C(CCCN)NC2=O)C(C)CC)S1.[Zn+2] (configuration not stated) [Bacitracin Zinc]	0.742
Cc1cc(C(C)(C)C)cc(C)c1CC1=NCCN1.Cl [Xylometazoline HCl]	0.846
CNCCC(Oc1cccc2ccccc12)c1cccs1 (configuration not stated) [Duloxetine]	1.18
CC(C)(C)CC(C)(C)c1ccc(OCCOCC[N+](C)(C)Cc2ccccc2)cc1.[Cl-] [Benzethonium Chloride]	0.529
O=C(O)c1ccc(-n2nc(-c3ccccc3O)nc2-c2ccccc2O)cc1 [Deferasirox]	1.07
Cc1onc(-c2c(F)cccc2Cl)c1C(=O)NC1C(=O)N2C1SC(C)(C)C2C(=O)[O-].[Na+] (configuration not stated) [Flucloxacillin sodium]	0.672
Cc1nc(C)c(C)nc1C.Cl [Ligustrazine hydrochloride]	0.674
C=CC1(C)CC(OC(=O)CSC2CC3CCC(C2)N3C)C2(C)C(C)CCC3(CCC(=O)C32)C(C)C1O (configuration not stated) [Retapamulin]	1.17
NS(=O)(=O)c1cc(C(=O)O)c(NCc2ccco2)cc1Cl [Furosemide]	0.909
CC1CCC(C(C)C)C(O)C1 (racemic) [DL-Menthol]	0.806
NCCCC[C@H](N)C(=O)O [L-lysine]	0.972
CC(CCC(=O)O)C1CCC2C3C(O)CC4CC(O)CCC4(C)C3CCC12C (configuration not stated) [Ursodiol]	0.731
C=C1c2c(Cl)ccc(O)c2C(=O)C2=C(O)C3(O)C(=O)C(C(N)=O)=C(O)C(N(C)C)C3C(O)C12.O=C(O)c1cc(S(=O)(=O)O)ccc1O (configuration not stated) [Meclocycline Sulfosalicylate]	0.673
COc1ccc(Cc2cnc(N)nc2N)cc1OC [Diaveridine]	1.1
CC(CCC(=O)O)C1CCC2C3C(O)CC4CC(O)CCC4(C)C3CCC12C (configuration not stated) [Chenodeoxycholic Acid]	0.508

SMILES	ISRE reporter
COc1cc(/C=C/C(=O)[O-])ccc1O.[Na+] [Sodium ferulate]	1.11
CN1CCN(CC(=O)N2c3ccccc3C(=O)Nc3cccnc32)CC1.Cl.Cl [Pirenzepine dihydrochloride]	0.94
OCc1ccccc1 [Benzyl alcohol]	0.538
CN1c2ccccc2C(=O)N2CCc3c([nH]c4ccccc34)C21 (configuration not stated) [Evodiamine]	0.601
Cl.OC(CCN1CCCCC1)(c1ccccc1)C1CCCCC1 (configuration not stated) [Trihexyphenidyl hydrochloride]	1.17
CCNC1CN(CCCOC)S(=O)(=O)c2sc(S(N)(=O)=O)cc21 (configuration not stated) [Brinzolamide]	0.843
CCCCNc1cc(C(=O)O)cc(S(N)(=O)=O)c1Oc1ccccc1 [Bumetanide]	0.94
Cl.NCCCC[C@H](N)C(=O)O [L-Lysine hydrochloride]	0.707
CC(NCCCc1cccc(C(F)(F)F)c1)c1cccc2ccccc12.Cl (configuration not stated) [Cinacalcet HCl]	1.69
O=C(NC1CCN(CCCCC2(C(=O)NCC(F)(F)F)c3ccccc3-c3ccccc32)CC1)c1ccccc1-c1ccc(C(F)(F)F)cc1 [Lomitapide]	1.77
CSCCNc1nc(SCCC(F)(F)F)nc2c1ncn2C1OC(COP(=O)([O][Na])OP(=O)([O][Na])C(Cl)(Cl)P(=O)([O][Na])[O][Na])C(O)C1O (configuration not stated) [Cangrelor Tetrasodium]	0.821
NC(CCC(=O)[O][Na])C(=O)O [L-Glutamic acid monosodium salt]	0.703
CCCC1CC(C(=O)NC(C(C)Cl)C2OC(SC)C(OP(=O)(O)O)C(O)C2O)N(C)C1 (configuration not stated) [Clindamycin Phosphate]	1.02
CC(=O)N[C@@H](Cc1ccc(O)cc1)C(=O)O [N-Acetyl-L-tyrosine]	0.658
COc1cc(S(=O)(=O)[O-])ccc1O.[K+] [Sulfogaiacol]	0.814
CCC(C)(C)C(=O)OC1CC(C)C=C2C=CC(C)C(CCC3CC(O)CC(=O)O3)C21 (configuration not stated) [Simvastatin]	1.64
